The supplement of paper PMC7826260
The other results are listed elsewhere or left out. One pool of 16,384 single-stranded DNAs met each Rep nickase domain in vitro (3 µM enzyme, 1 h, 37 °C); shown is the middle of each 90-letter strand. Numbers give uncut DNA relative to the enzyme-free pool, as log2; strong cutting gives strongly negative numbers. There is no active / inactive call. Reads are scaled to the total; uncut strands gain when others are lost, and binding without cutting may add a little.

These sequences were tested on T1, Rep nickase domain of tomato golden mosaic virus (assay: uncleaved DNA left, log2 of reads against the no-enzyme library (log2 ratio); higher = less cleavage (more negative = more Rep cleavage of the k-mer); sequences stand for … in CTCGTCCG…ACCGGAGA).
T1 sequence (protein, residues 1-124, tag omitted): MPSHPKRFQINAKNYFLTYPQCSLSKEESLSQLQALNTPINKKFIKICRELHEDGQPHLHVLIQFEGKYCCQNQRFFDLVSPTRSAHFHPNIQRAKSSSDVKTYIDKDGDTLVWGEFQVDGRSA
Experimental: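 A pool of 90-nt single-stranded DNAs with seven random bases just before the constant AC of the nick site (name = the seven bases) was cut by 3 µM recombinant His6-SUMO-tagged Rep nickase domain (300 nM DNA, 50 mM HEPES pH 8.0, 50 mM NaCl, 1 mM MnCl2, 1 h, 37 °C, three replicates). Uncut DNA was amplified and sequenced.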

| Sequence | uncleaved DNA left (log2) |
| --- | --- |
| AAACGAC | -0.105 |
| ACTATCG | -0.122 |
| GTTGGGA | 0.0934 |
| GGAATTA | 0.0604 |
| GCTCTTA | 0.138 |
| AACGAAT | 0.156 |
| ACCGCAA | -0.000746 |
| TGGATGG | -0.0328 |
| TGTGCTG | -0.109 |
| CGACATG | 0.0977 |
| TACATTC | -0.034 |
| TTACGAA | -0.0328 |
| GAACGTT | -0.0638 |
| GTATGAA | 0.0712 |
| CTCTGGA | 0.0206 |
| TCTTACG | -0.000335 |
| GTACTGC | 0.00848 |
| GCCTAAC | -0.0752 |
| GGTGTAC | 0.014 |
| TTCTTGA | -0.0274 |

| Sequence | uncleaved DNA left (log2) |
| --- | --- |
| TTTTCGA | -0.0925 |
| CAAGAAA | 0.00808 |
| CGTTACG | -0.0396 |
| TCCAGAA | 0.0701 |
| CCTAGGA | 0.103 |
| ATGTGGG | 0.0723 |
| TCCCCCT | -0.153 |
| TGTCCGT | -0.161 |
| CCCTCAG | -0.0894 |
| CATCCAC | -0.0429 |
| CTTCCCT | -0.287 |
| TGTGAGA | 0.179 |
| ACTTGGT | 0.00326 |
| TCTAAGG | 0.034 |
| GCTGCAC | -0.0121 |
| TGCGCGT | -0.0256 |
| TTTAAGA | 0.00471 |
| GGCCCCG | 0.0904 |
| TACGGTG | 0.0689 |
| TGCTAGA | 0.146 |
